Reference: PubChem BioAssay AID1466 (National Center for Advancing Translational Sciences (NCATS), 2008)
In all, about 200,000 compounds went through this assay and about 10 (0.005%) were called active. This list was built around the results that the source calls inconclusive (neither active nor inactive); the mix of calls is not that of the screen. The call rests on the fitted dose curve; in most records, active means well fitted inhibition curve with a large enough effect; inconclusive means small, poorly fitted or top-dose-only effect, or effect the other way, or another doubt; inactive means no such curve, though single readings can be large or run the other way. Potencies of inconclusive entries are left out as doubtful fits.
Potency means the concentration at half of the fitted maximal effect; tags describe the fitted curve by direction and shape.
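Wherever activity change, negative = inhibition is given: plate controls were uninhibited enzyme wells for no effect and no-enzyme background for full effect.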

The compounds below were run against Lysosomal alpha-glucosidase (Homo sapiens) (UniProt P10253) (assay: qHTS Assay for Inhibitors of Human alpha-Glucosidase as a Potential Chaperone Treatment of Pompe Disease). Details: purified human GAA, 4-MU-alpha-glucoside fluorescence; activity change, negative = inhibition: at 76.9 µM (top of the series) unless noted.
Procedure, shortened: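 Human alpha-glucosidase, 4 nM, pre-mixed with test compounds before 400 uM 4-methylumbelliferyl substrate; 20 min room temperature at pH 5.0. Fluorescence read after pH 10 stop; AC50 values from Hill-equation fits.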
In the case of Clc1ccc(-c2cc(CSc3cccc(Cl)c3)on2)cc1, the activity change, negative = inhibition is reported as inconclusive: 9.6% [activator]. In the case of COc1ccc(CC2(CO)CCN(Cc3cccc4nccnc34)CC2)cc1, the activity change, negative = inhibition is reported as inconclusive: 15.2% [activator]. In the case of CCN1C(=O)/C(=C/c2cccs2)N(C)C1=S, the Potency is reported as inconclusive [inhibitor, partial curve, poor fit]. Cc1cc(NC(=O)C2CCCCC2)n(-c2nc3ccccc3[nH]2)n1 was tested, and the Potency was inconclusive [inhibitor, single point]. In the case of Cc1cc(C(=O)N/N=C/c2cccc(OC(=O)c3ccco3)c2)n[nH]1, the Potency is reported as inconclusive [inhibitor, partial curve]. COC(=O)c1nn(-c2ccccc2)c(Cl)c1/C=N/OCc1ccc(C)cc1 was tested, and the Potency was inconclusive [inhibitor, partial curve]. NC(=O)c1ccccc1OCC(=O)NS(=O)(=O)c1ccc(Cl)cc1 was tested, and the activity change, negative = inhibition was inconclusive: -17.9% [inhibitor]. COc1ccc(C)cc1NC(=O)C1CCCN(S(=O)(=O)c2cccc3nonc23)C1 (stereo unspecified) was tested, and the Potency was inconclusive [inhibitor, single point]. With Nc1nc(SCC(=O)Nc2ccc([N+](=O)[O-])cc2Br)n[nH]1 the “activity change, negative = inhibition” value was inactive: -0.806%. For O=C(COC(=O)COc1ccc2ccccc2c1)NC1CCCc2ccccc21 (stereo unspecified), the Potency was inconclusive [inhibitor, single point]. In the case of N#Cc1ccc(CSc2nnc(-c3c[nH]c4ccccc34)n2-c2ccccc2)cc1, the Potency is reported as inconclusive [inhibitor, full curve]. With O=C(Nc1cccc(C(F)(F)F)c1)c1ccc(Cn2cc(Br)cn2)o1 the “activity change, negative = inhibition” value was inactive: 0.168%. In the case of CCN(CC)CCCN(Cc1cc2cc3c(cc2[nH]c1=O)OCCO3)C(=O)Nc1ccccc1, the Potency is reported as inconclusive [activator, partial curve]. In the case of Cc1nn(Cc2ccc(F)cc2)c(C)c1NC(=O)c1cnn2c1NC(c1cccs1)CC2C(F)(F)F (stereo unspecified), the Potency is reported as inconclusive [inhibitor, single point]. COCCn1c(C)cc(C(=O)COC(=O)CCN2C(=O)c3ccccc3C2=O)c1C was tested, and the activity change, negative = inhibition was inconclusive: -15.2% [inhibitor]. For CC(C)Cn1c(CCC(=O)O)ccc1-c1cccs1, the Potency was inconclusive [activator, single point]. For Cc1ccc(C)c(Cn2c(CN(C)Cc3ccccc3)nc3c2c(=O)n(C)c(=O)n3C)c1, the Potency was inconclusive [inhibitor, partial curve]. Cc1cc(Oc2ccc(-c3nnc(-c4ccccc4)o3)cc2[N+](=O)[O-])ccc1Cl was tested, and the “activity change, negative = inhibition” value was inactive: -0.0639%. With COc1ccc(-n2c(COc3ccccc3)nnc2SCc2ccc(C#N)cc2)cc1 the Potency was inconclusive [inhibitor, single point]. In the case of COc1ccccc1OCCCN1C(=O)C(=O)c2cccc(C)c21, the activity change, negative = inhibition is reported as inconclusive: 8.24% [activator]. With CC(=O)Nc1cccc(NC(=O)Nc2ccc(F)cc2F)c1 the Potency was inconclusive [inhibitor, full curve, poor fit]. In the case of Cc1ccc(-n2c(C)cc(/C=N/NC(=O)c3ccncc3)c2C)cc1C, the Potency is reported as inconclusive [inhibitor, partial curve, poor fit]. With CCOC(=O)C1=C(C)NC(=O)NC1c1ccc(OC)c(Cl)c1 (stereo unspecified) the Potency was inconclusive [inhibitor, single point]. In the case of CCCn1c(N2CCN(C(=O)Nc3ccc(Cl)cc3)CC2)nc2ccccc21, the Potency is reported as inconclusive [inhibitor, partial curve]. In the case of COc1ccc(-c2nc3ccccc3c(=O)o2)cc1OC, the activity change, negative = inhibition is reported as inconclusive: -17% [inhibitor]. For O=C(CCC(=O)OCCCC(F)(F)C(F)(F)F)Nc1ccccc1, the activity change, negative = inhibition was inconclusive: -21.4% [inhibitor]. With O=C(NCCc1ccccc1Cl)C1CCN(S(=O)(=O)c2cccs2)CC1 the Potency was inconclusive [inhibitor, partial curve, poor fit]. COC(=O)c1ccc(NC(=O)C(=O)N2CCN(C(=S)NCCc3ccccc3)CC2)cc1 was tested, and the Potency was inconclusive [inhibitor, partial curve, poor fit]. In the case of Cc1ccc(S(=O)(=O)N2CCN(S(=O)(=O)c3ccc4c(c3)OCCO4)CC2)cc1, the “activity change, negative = inhibition” value is reported as inactive: 0.868%. With CC(=O)Nc1cccc(C(=O)N/N=C/c2ccc(F)cc2)c1 the Potency was inconclusive [inhibitor, single point]. For COc1ccc(NC(=S)Nn2cnnc2)cc1OC, the activity change, negative = inhibition was inconclusive: 21.3% [activator]. With CCCCC(CCC(=O)Nc1cc([N+](=O)[O-])ccc1O)C(=O)O (stereo unspecified) the Potency was inconclusive [inhibitor, single point]. In the case of CN(C)CCCOC(=O)c1ccc(Cl)cc1, the Potency is reported as inconclusive [activator, single point]. With Cc1cc(C)c2c(-n3cccc3)c(NC(=O)OCc3ccccc3)sc2n1 the activity change, negative = inhibition was inconclusive: -20.8% [inhibitor]. CCCc1cc(=O)oc2cc(OCC(=O)Nc3cc(C)on3)ccc12 was tested, and the Potency was inconclusive [activator, single point]. In the case of Cc1ccccc1Oc1ncnc2oc(-c3ccccc3)cc12, the Potency is reported as inconclusive [inhibitor, single point]. Nc1nc2nc(-c3ccc(Cl)cc3)cc(C(F)(F)F)n2n1 was tested, and the Potency was inconclusive [activator, partial curve]. For COc1ccc(S(=O)(=O)N2CCC(C(=O)NCC3CCCO3)CC2)cc1C (stereo unspecified), the activity change, negative = inhibition was inconclusive: 7.56% [activator]. For COc1cc(C2Nc3ccccc3C(=O)N2c2ccccc2)c(Br)cc1OCC(=O)O (stereo unspecified), the Potency was inconclusive [activator, partial curve, poor fit]. N#CCCn1cc(C(CC(=O)c2ccc(Br)cc2)C(=O)O)c2ccccc21 (stereo unspecified) was tested, and the Potency was inconclusive [inhibitor, single point]. For CCOC(=O)c1[nH]c2ccc(OC)cc2c1NC(=O)c1cccc(OC)c1, the Potency was inconclusive [inhibitor, single point].
